Data reported in publication PMC6141925.
No constants are given. Whether binding was seen depends on the method and setting. In cells and extracts the contact can be indirect. Some entries that bind do so weakly or less than the wild type. For some of these results: Sequences can lack the tags named with a protein.

By UniProt entry, the sequences of proteins in these tests, tags left out.
UniProt Q1KZ54: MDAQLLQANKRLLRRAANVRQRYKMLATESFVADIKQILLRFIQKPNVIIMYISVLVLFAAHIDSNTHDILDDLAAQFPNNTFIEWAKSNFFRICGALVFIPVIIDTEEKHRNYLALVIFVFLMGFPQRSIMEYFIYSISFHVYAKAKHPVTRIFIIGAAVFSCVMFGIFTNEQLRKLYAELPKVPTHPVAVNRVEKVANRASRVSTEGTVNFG
UniProt Q1KZ55: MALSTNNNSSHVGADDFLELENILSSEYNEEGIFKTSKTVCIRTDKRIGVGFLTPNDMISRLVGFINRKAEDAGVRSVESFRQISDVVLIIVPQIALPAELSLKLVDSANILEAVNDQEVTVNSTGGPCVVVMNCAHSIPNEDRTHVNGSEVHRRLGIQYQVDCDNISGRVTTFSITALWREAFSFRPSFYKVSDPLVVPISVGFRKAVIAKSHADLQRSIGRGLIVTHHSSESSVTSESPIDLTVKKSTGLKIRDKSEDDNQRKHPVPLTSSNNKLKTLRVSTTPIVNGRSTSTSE
UniProt Q1KZ57: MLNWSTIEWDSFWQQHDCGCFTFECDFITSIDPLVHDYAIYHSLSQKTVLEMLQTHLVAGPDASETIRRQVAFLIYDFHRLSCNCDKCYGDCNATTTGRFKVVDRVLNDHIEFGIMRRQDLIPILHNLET

Assays:
Assay in all cases: split reporter; BiFC with N-YFP and C-YFP halves fused to the N- or C-terminus of each protein; pairs transiently co-expressed in N. benthamiana leaves by agroinfiltration (OD600 = 0.4); 23°C day 18°C night; fluorescence reconstitution observed at 4 days post-infiltration by confocal microscopy; grades –, +, ++, +++ = absent, low, medium, high fluorescence
[1] = target: N-YFP:p24 (citrus leprosis virus C) (UniProt Q1KZ54)
[2] = target: p24:N-YFP (citrus leprosis virus C) (UniProt Q1KZ54)
[3] = target: MP:C-YFP (citrus leprosis virus C) (UniProt Q1KZ55)
[4] = target: p24:C-YFP (citrus leprosis virus C) (UniProt Q1KZ54)
[5] = target: C-YFP:p24 (citrus leprosis virus C) (UniProt Q1KZ54)
[6] = target: C-YFP:MP (citrus leprosis virus C) (UniProt Q1KZ55)
[7] = target: C-YFP:p15 (citrus leprosis virus C) (UniProt Q1KZ57)
[8] = target: p15:C-YFP (citrus leprosis virus C) (UniProt Q1KZ57)
[9] = target: T1, C-YFP:TSWV N (tomato spotted wilt virus) (UniProt P25999)
T1 sequence: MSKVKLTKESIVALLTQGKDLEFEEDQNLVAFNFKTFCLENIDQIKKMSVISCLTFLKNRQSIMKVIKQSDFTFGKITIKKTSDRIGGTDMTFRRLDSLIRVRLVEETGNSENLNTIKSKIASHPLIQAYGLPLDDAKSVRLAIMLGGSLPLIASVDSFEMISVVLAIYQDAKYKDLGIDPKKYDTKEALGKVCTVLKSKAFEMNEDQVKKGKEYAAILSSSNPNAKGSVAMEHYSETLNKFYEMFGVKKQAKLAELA

C-YFP:MP (from UniProt Q1KZ55 1-297) was tested, and the binding [1] was “no binding” and the binding [2] was “no binding”.

In the case of C-YFP:p15 (from UniProt Q1KZ57 1-130), the binding [1] is reported as “no binding” and the binding [2] is reported as “no binding”.

With MP:C-YFP (from UniProt Q1KZ55 1-297) the binding [1] was “no binding” and the binding [2] was “no binding”.

MP:N-YFP (from UniProt Q1KZ55 1-297) was tested, and the binding [3] was “no binding”, the binding [4] was “no binding” and the binding [5] was “no binding”. The binding [6] was “no binding”.

In the case of N-YFP:MP (from UniProt Q1KZ55 1-297), the binding [3] is reported as “no binding”, the binding [4] is reported as “no binding” and the binding [5] is reported as “no binding”. For the same molecule, the binding [6] was “no binding”.

In the case of N-YFP:p15 (from UniProt Q1KZ57 1-130), the binding [4] is reported as “no binding”, the binding [7] is reported as “binds” and the binding [8] is reported as “binds”. The binding [5] was “no binding”.

p15:C-YFP (from UniProt Q1KZ57 1-130) was tested, and the binding [1] was “no binding” and the binding [2] was “no binding”.

p15:N-YFP (from UniProt Q1KZ57 1-130) was tested, and the binding [4] was “no binding”, the binding [7] was “binds” and the binding [8] was “binds”. The binding [5] was “no binding”.

B1: N-YFP:TSWV N (protein, UniProt P25999 1-258)
chain: MSKVKLTKESIVALLTQGKDLEFEEDQNLVAFNFKTFCLENIDQIKKMSVISCLTFLKNRQSIMKVIKQSDFTFGKITIKKTSDRIGGTDMTFRRLDSLIRVRLVEETGNSENLNTIKSKIASHPLIQAYGLPLDDAKSVRLAIMLGGSLPLIASVDSFEMISVVLAIYQDAKYKDLGIDPKKYDTKEALGKVCTVLKSKAFEMNEDQVKKGKEYAAILSSSNPNAKGSVAMEHYSETLNKFYEMFGVKKQAKLAELA
With B1 the binding [9] was “binds”.
